Laboratory results taken from PubChem BioAssay AID504832 (National Center for Advancing Translational Sciences (NCATS), 2011).
Screen size: about 310,000 compounds; about 18,000 (5.8%) were called active. This list was built around the results that the source calls inconclusive (neither active nor inactive); the mix of calls is not that of the screen. Calls follow the shape of the dose curve; as a rule, active = well fitted inhibition curve with a large enough effect; inconclusive = small, poorly fitted or top-dose-only effect, or another doubt; inactive = no such curve, though single readings can be large or run the other way. Potencies of inconclusive entries are left out as doubtful fits.

Experiment: Primary qHTS for delayed death inhibitors of the malarial parasite plastid, 48 hour incubation
Conditions: P. falciparum luciferase growth in erythrocytes; series mostly up to 28.7 µM; activity change, negative = inhibition: at the top concentration
How it was run: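 Erythrocytes infected with P. falciparum carrying an integrated firefly luciferase reporter (2% hematocrit, 0.1% parasitemia final) were exposed to compounds in RPMI 1640 with 0.5% Albumax at 37 C, 5% CO2. Growth inhibition was scored as reduced luminescence.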
% is scaled to controls: 0 for no effect and ±100 for the full control effect; potency is read from the fitted curve at half-maximal effect; tags tell the direction and shape of the fitted curve.

SMILES | Potency | activity change, negative = inhibition
O=C(CC1CC2CCC1C2)N1CCN(S(=O)(=O)c2ccccc2F)CC1 (stereo unspecified) | inconclusive [inhibitor, single point] | –
O=C(Nc1ccc(N2CCN(C(=O)c3cccs3)CC2)c(Cl)c1)c1cccnc1 | inconclusive [inhibitor, full curve] | –
CC(C)C[C@H](NC(=O)c1nc[nH]c1C(=O)NCCCCCNC(=O)OC(C)(C)C)C(=O)OC(C)(C)C | active: 7.38 µM | –
Nc1nc(N)c2nc(-c3ccccc3)c(N)nc2n1 | active: 1.69 µM | –
CCSc1nnc2ccc(-c3ccc(C)cc3)nn12 | – | inactive: -6%
CCN(CC)CC#CCC(OC)(c1ccccc1)c1ccccc1 | inconclusive [inhibitor, single point] | –
CC1(C)Cc2c(c(N3CCOCC3)nc3sc4c(NCCN5CCOCC5)nnnc4c23)CS1 | inconclusive [inhibitor, partial curve] | –
CCOc1ccccc1OC(C)C(=O)Nc1ccc(S(=O)(=O)N2CCCC2)cc1 (stereo unspecified) | inconclusive [inhibitor, single point] | –
COc1ccc(C(=O)COC(=O)CN2C(=O)C3C4CCC(C4)C3C2=O)cc1 (stereo unspecified) | – | inactive: 15.6%
O=C1c2ccccc2C(=O)N1CCCc1nc(-c2ccncc2)no1 | – | inactive: -0.226%
Cc1[nH]c2ccccc2c1/C=N/Nc1ccc(F)cc1F | inconclusive [inhibitor, partial curve, poor fit] | –
CCOC(=O)c1cnn(-c2nc(SC)nc3sc4c(c23)CCCC4)c1N | inconclusive [inhibitor, single point] | –
CC1=C(C(=O)OCc2ccccc2)C(c2ccccc2)NC(=O)N1CCCCCC(=O)O (stereo unspecified) | – | inactive: -20.9%
CC1CCN(S(=O)(=O)c2ccc3c(c2)C(=NO)c2cc(S(=O)(=O)N4CCC(C)CC4)ccc2-3)CC1 | inconclusive [inhibitor, partial curve, poor fit] | –
O=C(Cn1nc(-c2cccc([N+](=O)[O-])c2)c2ccccc2c1=O)NCC1CCCO1 (stereo unspecified) | inconclusive [inhibitor, partial curve, poor fit] | –
CC1CN(C(=O)CCC(=O)NCc2ccc(Cl)cc2)c2ccccc2S1 (stereo unspecified) | – | inactive: 9.76%
Cc1ccc(NC(=O)CN(C)C(=O)c2ccccc2Cc2ccccc2)cc1 | inconclusive [inhibitor, partial curve] | –
CS(=O)(=O)N1N=C(c2cccs2)CC1c1ccccc1 (stereo unspecified) | inconclusive [inhibitor, full curve, poor fit] | –
CN(C)N=Nc1ccc(S(N)(=O)=O)cc1 | – | inactive: 34.6%
Cn1c(Cc2cccs2)nnc1SCC(=O)Nc1ccc(C(N)=O)cc1 | – | inactive: 1.1%
Cc1ccc(-c2cc(C(=O)Nc3cc(C)on3)c3ccccc3n2)cc1 | inconclusive [inhibitor, full curve, poor fit] | –
Cc1cc(=O)oc2cc(OCC(=O)N3c4ccccc4CC3C)ccc12 (stereo unspecified) | inconclusive [inhibitor, single point] | –
CCOC(=O)c1ccc(N2C(=O)C3CCOc4ccccc4C32)cc1 (stereo unspecified) | inconclusive [inhibitor, single point] | –
CC(C(=O)NCc1ccco1)n1ccc2cc(S(=O)(=O)N3CCCC3)ccc21 (stereo unspecified) | inconclusive [inhibitor, single point] | –

SMILES | Potency | activity change, negative = inhibition
COc1ccc(/C=C(\C#N)C(=O)Nc2cc(S(=O)(=O)N3CCCCC3)ccc2N2CCCCC2)cc1 | inconclusive [inhibitor, partial curve, poor fit] | –
O=C(/C=C/c1ccc(F)cc1)NCC1(c2ccccc2)CCOCC1 | inconclusive [inhibitor, partial curve] | –
Cc1[nH]n(-c2ccccc2)c(=S)c1C=Nc1cccc([N+](=O)[O-])c1 | – | inactive: 15.2%
CC(C)OC(=O)c1cn(-c2ccccc2)nc1-c1ccco1 | active: 10.4 µM | –
O=C(CC1OC(=O)c2ccccc21)Nc1cc(Cl)ccc1N1CCCC1 (stereo unspecified) | inconclusive [inhibitor, single point] | –
COc1cccc(N(C(=O)Cn2nnc(-c3ccc(C)o3)n2)C(C(=O)NC2CCCC2)c2ccncc2)c1 (stereo unspecified) | inconclusive [inhibitor, full curve] | –
Cc1ccc(C(=O)N(C)CCOc2ccccc2)cc1S(=O)(=O)N1CCCCC1 | inconclusive [inhibitor, single point] | –
CC(=O)Nc1ccc(S(=O)(=O)N2CCN(C(=O)N3CCCCCC3)CC2)cc1 | inconclusive [inhibitor, single point] | –
Cc1ccc(S(=O)(=O)N(C)CC(=O)OCc2nnc(-c3ccccc3)o2)cc1 | – | inactive: 7.85%
CCOc1ccc(C(=O)N/N=C/c2cccc3cccnc23)cc1 | inconclusive [inhibitor, single point] | –
COc1cccc(-c2coc3c(C)c4oc(=O)c(CC(=O)O)c(C)c4cc23)c1 | inconclusive [inhibitor, full curve, poor fit] | –
S=C(c1ccc(-c2cc(Cl)ccc2Cl)o1)N1CCOCC1 | inconclusive [inhibitor, single point] | –
Cn1c(O)c(/C=N/N2CCOCC2)c(=O)n(C)c1=S | active: 13.1 µM | –
C=CCn1c(NS(=O)(=O)c2ccccc2)c(S(=O)(=O)c2ccc(C)cc2)c2nc3ccccc3nc21 | active: 3.29 µM | –
O=C(COC(=O)c1cnccn1)NCc1ccc2c(c1)OCO2 | – | inactive: 9.2%
COc1ccc(OC2C(=O)N(c3ccc(C)c(C)c3)C2c2ccc(OC)c(OC)c2)cc1 (stereo unspecified) | active: 9.28 µM | –
O=C(NCc1ccc(Cl)cc1)c1ccc(CNc2c(N3CCCC3)c(=O)c2=O)cc1 | – | inactive: -16.4%
CCOC(=O)c1c(NC(=O)COC(=O)c2ccccc2NC)sc(C(=O)N(C)C)c1C | inconclusive [inhibitor, partial curve] | –
N#Cc1cccc(-c2cn(S(=O)(=O)c3ccc(Cl)cc3)nc2N)c1 | inconclusive [inhibitor, partial curve] | –
CC(C)c1ccc(NC(=O)CSc2n[nH]c(=O)n2Cc2ccco2)cc1 | inconclusive [inhibitor, single point] | –
COc1ccc(C(=O)NCCCn2cccn2)cc1OC1CCN(C(C)=O)CC1 | – | inactive: 30.5%
Cn1c(=O)cc(OCC(=O)NCCCN2CCN(c3cccc(Cl)c3)CC2)c2ccccc21 | inconclusive [inhibitor, single point] | –
Cc1ccc(-c2csc(N3CCN(CCCn4c(C(F)(F)F)nc5ccccc54)CC3)n2)cc1 | inconclusive [inhibitor, partial curve, poor fit] | –
O=c1[nH]cc(S(=O)(=O)N2CCN(c3cccc(Cl)c3)CC2)c(=O)[nH]1 | – | inactive: 32.2%

SMILES | Potency | activity change, negative = inhibition
O=C(O)COc1ccc(C(=O)c2cccs2)c(Cl)c1Cl | inactive | –
COc1ccc(N2CCN(S(=O)(=O)c3ccc(C(=O)NCc4ccco4)cc3)CC2)cc1 | inconclusive [inhibitor, full curve] | –
O=C(CSc1nnc(CCCO)n1-c1ccccc1)Nc1nccs1 | – | inactive: -0.808%
CN(Cc1ccccc1)S(=O)(=O)c1ccc(OCC(=O)NCc2ccccn2)cc1 | inconclusive [inhibitor, partial curve] | –
Nc1nc(NCCCN2CCOCC2)nc(NCc2ccccc2)c1[N+](=O)[O-] | inconclusive [inhibitor, partial curve] | –
Cc1cccc(NCC(=O)c2c(N)n(C)c(=O)n(C)c2=O)c1C | – | inactive: 37.8%
COCc1cc(C)nc(SCC(=O)Nc2cccc(C)c2C)c1C#N | inconclusive [inhibitor, partial curve, poor fit] | –
CC(NC(=O)CN1c2cccc3cccc(c23)S1(=O)=O)c1ccc(S(N)(=O)=O)cc1 (stereo unspecified) | – | inactive: -4.44%
CCOC(=O)C(=CNc1ccc(C(F)(F)F)cc1Cl)C(=O)OCC | – | inactive: -7.05%
COc1ccc(S(=O)(=O)NCC(c2ccco2)N2CCOCC2)cc1 (stereo unspecified) | – | inactive: -6.97%
O=C(CN1C(=O)/C(=C/c2ccccc2Cl)SC1=S)NC1C=CS(=O)(=O)C1 (stereo unspecified) | – | inactive: 35.2%
Cc1ccc(C(=O)OCC(=O)N2C(C)CCCC2C)cc1S(=O)(=O)N1CCCCC1 (stereo unspecified) | inconclusive [inhibitor, partial curve] | –
COc1cccc(-c2noc(C3CCCN(C(=O)c4cccc(F)c4)C3)n2)c1 (stereo unspecified) | inconclusive [inhibitor, full curve, poor fit] | –
COc1cccc(N/C(SCc2ccccc2Cl)=C(/C#N)C(=O)NCc2cccs2)c1 | active: 10.4 µM | –
CSC1=NCCN1C(=O)c1ccc(C)cc1 | – | inactive: -1.05%
Cc1cccc(N/C=C(\[N+](=O)[O-])S(=O)(=O)c2ccccc2)c1C | active: 11.7 µM | –
O=C(N/N=C/c1cccnc1)c1cccc(NC(=O)c2cccc(Br)c2)c1 | – | inactive: -22.7%
COc1ccccc1Nc1nn2c(=O)c3ccc(C(=O)N4CCCCC4)cc3nc2s1 | inconclusive [inhibitor, partial curve] | –
CC1CCCC(C)N1C(=O)c1cc(-c2ccco2)on1 (stereo unspecified) | – | inactive: 13.7%
Cc1ccccc1N/C(SCc1ccc(Cl)cc1)=C(/C#N)C(=O)NCc1ccco1 | inconclusive [inhibitor, single point] | –
Cc1cccc(C)c1NC(=O)CSc1nc(C)c(CC(=O)c2ccc(Br)cc2)c(C)c1C#N | – | inactive: 19.9%
N/C(COc1cccc(Cl)c1)=N\O | – | inactive: 11.2%
COc1ccc(NC(=S)N(CCC(C)C)C2CCN(C(C)C)CC2)cc1Cl | inconclusive [inhibitor, single point] | –
